The results in this text go back to paper PMC7498353.

Chains of the proteins cited; added tags and fusions are not shown.
UniProt P49336: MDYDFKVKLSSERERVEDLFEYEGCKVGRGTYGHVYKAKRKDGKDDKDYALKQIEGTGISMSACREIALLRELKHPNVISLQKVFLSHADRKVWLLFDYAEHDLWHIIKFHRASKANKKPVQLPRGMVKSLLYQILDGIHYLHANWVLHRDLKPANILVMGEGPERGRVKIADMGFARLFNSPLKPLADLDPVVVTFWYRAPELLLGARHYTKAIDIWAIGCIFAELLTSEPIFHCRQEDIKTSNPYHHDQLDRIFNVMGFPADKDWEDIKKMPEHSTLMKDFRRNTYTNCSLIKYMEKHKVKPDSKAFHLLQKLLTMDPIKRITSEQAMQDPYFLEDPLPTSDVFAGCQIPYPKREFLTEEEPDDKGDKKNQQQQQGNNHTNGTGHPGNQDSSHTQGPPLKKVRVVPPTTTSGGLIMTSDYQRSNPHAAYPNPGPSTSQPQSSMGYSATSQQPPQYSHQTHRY
UniProt Q93074: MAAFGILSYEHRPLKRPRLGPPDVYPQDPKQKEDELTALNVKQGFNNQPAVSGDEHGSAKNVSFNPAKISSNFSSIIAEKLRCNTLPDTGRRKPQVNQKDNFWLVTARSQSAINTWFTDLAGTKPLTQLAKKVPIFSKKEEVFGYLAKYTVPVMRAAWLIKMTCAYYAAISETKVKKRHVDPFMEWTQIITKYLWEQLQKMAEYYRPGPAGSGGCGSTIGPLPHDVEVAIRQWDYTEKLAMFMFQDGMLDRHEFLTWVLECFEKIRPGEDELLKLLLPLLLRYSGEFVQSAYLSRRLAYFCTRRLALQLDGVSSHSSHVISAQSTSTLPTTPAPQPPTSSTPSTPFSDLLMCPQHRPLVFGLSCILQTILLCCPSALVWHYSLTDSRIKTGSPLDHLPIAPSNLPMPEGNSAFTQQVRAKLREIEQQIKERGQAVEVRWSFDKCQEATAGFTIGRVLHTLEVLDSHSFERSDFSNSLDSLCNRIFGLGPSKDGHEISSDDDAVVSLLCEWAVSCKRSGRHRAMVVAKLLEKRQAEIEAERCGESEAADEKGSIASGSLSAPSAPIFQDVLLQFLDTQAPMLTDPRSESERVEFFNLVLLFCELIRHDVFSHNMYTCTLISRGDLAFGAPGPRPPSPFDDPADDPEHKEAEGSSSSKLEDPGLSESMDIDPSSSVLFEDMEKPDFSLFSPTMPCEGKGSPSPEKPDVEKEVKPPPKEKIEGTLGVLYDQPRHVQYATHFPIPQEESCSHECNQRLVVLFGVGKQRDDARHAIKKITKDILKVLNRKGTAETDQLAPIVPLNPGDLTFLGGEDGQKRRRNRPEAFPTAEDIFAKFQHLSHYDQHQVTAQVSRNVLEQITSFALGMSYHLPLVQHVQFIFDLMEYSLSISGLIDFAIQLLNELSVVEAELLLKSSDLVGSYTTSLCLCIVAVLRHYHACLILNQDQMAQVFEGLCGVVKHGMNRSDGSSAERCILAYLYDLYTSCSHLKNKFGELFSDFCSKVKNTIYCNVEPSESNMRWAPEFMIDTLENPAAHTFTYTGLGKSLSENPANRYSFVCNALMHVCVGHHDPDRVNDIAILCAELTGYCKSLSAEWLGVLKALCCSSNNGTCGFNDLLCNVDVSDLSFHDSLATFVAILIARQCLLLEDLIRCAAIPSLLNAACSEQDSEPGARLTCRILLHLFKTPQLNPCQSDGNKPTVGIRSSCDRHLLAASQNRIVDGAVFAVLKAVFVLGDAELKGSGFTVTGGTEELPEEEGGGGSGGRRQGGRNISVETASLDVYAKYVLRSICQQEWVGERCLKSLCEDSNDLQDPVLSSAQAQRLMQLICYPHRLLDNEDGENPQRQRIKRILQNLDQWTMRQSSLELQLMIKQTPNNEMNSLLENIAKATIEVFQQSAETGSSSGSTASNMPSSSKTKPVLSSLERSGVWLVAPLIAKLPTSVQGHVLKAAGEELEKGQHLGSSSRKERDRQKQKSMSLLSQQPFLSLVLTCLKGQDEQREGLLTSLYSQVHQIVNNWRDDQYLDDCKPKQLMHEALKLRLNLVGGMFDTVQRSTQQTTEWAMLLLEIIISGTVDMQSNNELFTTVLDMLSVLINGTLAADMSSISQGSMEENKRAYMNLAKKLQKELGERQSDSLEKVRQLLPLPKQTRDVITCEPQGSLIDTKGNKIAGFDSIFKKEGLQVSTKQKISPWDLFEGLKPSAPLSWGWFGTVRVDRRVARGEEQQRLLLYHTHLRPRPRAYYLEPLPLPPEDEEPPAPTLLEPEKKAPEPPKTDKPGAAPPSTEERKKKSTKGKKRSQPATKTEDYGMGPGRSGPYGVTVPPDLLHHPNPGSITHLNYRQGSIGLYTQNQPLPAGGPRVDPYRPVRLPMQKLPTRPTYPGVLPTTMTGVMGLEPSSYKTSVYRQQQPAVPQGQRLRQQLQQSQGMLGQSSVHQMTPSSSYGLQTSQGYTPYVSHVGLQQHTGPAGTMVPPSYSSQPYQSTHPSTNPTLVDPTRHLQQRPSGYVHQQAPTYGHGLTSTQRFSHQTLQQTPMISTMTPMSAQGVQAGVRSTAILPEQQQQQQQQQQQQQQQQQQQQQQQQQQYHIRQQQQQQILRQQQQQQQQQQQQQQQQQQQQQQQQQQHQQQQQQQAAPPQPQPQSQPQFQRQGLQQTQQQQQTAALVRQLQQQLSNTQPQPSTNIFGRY
UniProt O15527: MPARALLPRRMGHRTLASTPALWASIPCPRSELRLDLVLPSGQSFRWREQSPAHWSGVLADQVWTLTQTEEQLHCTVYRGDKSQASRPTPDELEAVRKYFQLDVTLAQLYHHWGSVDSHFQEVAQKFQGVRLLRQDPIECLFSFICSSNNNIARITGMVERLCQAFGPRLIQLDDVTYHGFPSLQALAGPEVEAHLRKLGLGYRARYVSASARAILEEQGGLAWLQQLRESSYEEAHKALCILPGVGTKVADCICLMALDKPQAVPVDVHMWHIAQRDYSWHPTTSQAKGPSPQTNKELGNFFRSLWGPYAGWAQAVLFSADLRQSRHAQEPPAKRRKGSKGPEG

For test [1], the target named is CDK8-GFP (human) (UniProt P49336). Kind of test: FRET or BRET; FLIM-FRET in fixed HeLa cells; donor CDK8-GFP, acceptor OGG1-Halotag (TMR) or OGG1-mCherry; non-treated cells (no oxidative stress); donor lifetime measured in the nucleus.
For test [2] the target is unchanged. Description: FRET or BRET; FLIM-FRET in fixed HeLa cells; donor CDK8-GFP, acceptor OGG1-Halotag (TMR) or OGG1-mCherry; cells treated with 40 mM KBrO3, 3 h recovery (K3), with or without CSK wash; donor lifetime measured in the nucleus.
The target in test [3] is mediator CKM subunit CDK8 (human (endogenous in HeLa)) (UniProt P49336). Kind of test: co-IP; non-treated (NT) HeLa OGG1–GFP cells; benzonase-treated lysate (150 mM NaCl, 0.1% NP40); IP with antibody against SMC1, MED12 or CDK8 or control IgG on Dynabeads; OGG1 detected by western blot.
Test [4] has as its target mediator CKM subunit MED12 (human (endogenous in HeLa)) (UniProt Q93074). The description is as above.
Test [5] addresses mediator CKM subunit CDK8 (human (endogenous in HeLa)) (UniProt P49336). Kind of test: co-IP; HeLa OGG1–GFP cells treated with 40 mM KBrO3 (K3, 3 h recovery); benzonase-treated lysate (150 mM NaCl, 0.1% NP40); IP with antibody against SMC1, MED12 or CDK8 or control IgG on Dynabeads; OGG1 detected by western blot.
Test [6] has as its target mediator CKM subunit MED12 (human (endogenous in HeLa)) (UniProt Q93074). The test is described as above.

These are yes or no findings as the source states them, for the method shown. Binding seen in cells or lysates may run through a third protein. Some entries that bind do so weakly or less than the wild type.

In the case of “OGG1-mCherry (from UniProt O15527 1-345) (enzyme)”, the binding result is reported as “no binding (condition: non-treated cells (without KBrO3))” in test [1] and “binds” in test [2].
For “hOGG1 fused to GFP (8-oxoguanine DNA glycosylase 1) (from UniProt O15527 1-345) (enzyme)”, the binding entry was “no binding (condition: non-treated cells (without KBrO3))” in test [3], “no binding (condition: non-treated cells (without KBrO3))” in test [4], “binds” in test [5] and “binds” in test [6].
